# PubChem BioAssay AID588342 (National Center for Advancing Translational Sciences (NCATS), 2011)
# Where “and” joins values, the source holds several entries; their conditions need not be identical. Identical values can stand only once. Among all 360,000 compounds or so, about 25,000 (6.9%) were called active. The inconclusive results got no clear call from the source; some entries with a clear call stand among them for comparison. Calls come from the whole dose curve; as a rule, active = well fitted inhibition curve with a large enough effect; inconclusive = small, poorly fitted or top-dose-only effect; inactive = flat fitted curve, though single readings scatter. A potency beside an inconclusive call is a rough fit, not a confirmed value.
# Molecular target: Luciferin 4-monooxygenase (Photinus pyralis) (UniProt P08659)
# Chain of UniProt P08659 (P08659 whole entry, looked up): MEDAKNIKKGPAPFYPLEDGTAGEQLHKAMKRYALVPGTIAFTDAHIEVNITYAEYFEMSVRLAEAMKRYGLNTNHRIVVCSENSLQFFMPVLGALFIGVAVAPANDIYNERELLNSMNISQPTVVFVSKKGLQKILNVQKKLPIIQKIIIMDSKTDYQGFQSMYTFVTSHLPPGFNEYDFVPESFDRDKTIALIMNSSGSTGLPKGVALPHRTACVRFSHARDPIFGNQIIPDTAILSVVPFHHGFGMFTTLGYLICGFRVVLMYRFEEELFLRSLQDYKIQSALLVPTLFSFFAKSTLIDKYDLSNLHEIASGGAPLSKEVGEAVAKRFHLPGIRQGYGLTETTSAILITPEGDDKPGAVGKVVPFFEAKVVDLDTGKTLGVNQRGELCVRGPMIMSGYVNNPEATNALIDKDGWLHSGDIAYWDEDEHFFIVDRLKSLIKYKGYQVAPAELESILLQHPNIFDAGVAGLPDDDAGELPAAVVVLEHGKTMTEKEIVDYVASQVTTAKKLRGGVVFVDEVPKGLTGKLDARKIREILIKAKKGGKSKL
# Test: qHTS profiling assay for firefly luciferase inhibitor/activator using purifed enzyme and Km concentrations of substrates (counterscreen for miR-21 project); note: nearly all actives have a fitted effect of over 55% in size
# Conditions: purified FLuc, luminescence inhibition; series mostly up to 57.5 µM
# Procedure, shortened: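 Purified P. pyralis luciferase (10nM final) with 10uM D-luciferin and 10uM ATP (Km levels) in 50mM Tris acetate pH 7.5, 10mM Mg acetate, 0.01% Tween-20, 0.05% BSA; qHTS 6-point titration, ~60 µM downward; luminescence read.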
# Potency is the fitted concentration of half-maximal effect; tags give direction and shape of the fitted curve.
row,SMILES,Potency
1,CC(c1cccnc1)N(CCN(C)C)C(=O)Nc1ccc(Cl)cc1 (configuration not stated),"inconclusive: 37.9 µM [inhibitor, partial curve, poor fit]"
2,NC(=O)c1ccsc1NC(=O)COC(=O)Cc1ccsc1,"inconclusive: 19 µM [inhibitor, partial curve, poor fit]"
3,COc1cccc(-c2noc(-c3ccc4c(c3)OCO4)n2)c1,active: 0.536 µM
4,Cc1ccc(C2=NN(C(=O)CN3C(=O)c4ccccc4S3(=O)=O)C(c3ccco3)C2)cc1 (configuration not stated),inactive
5,O=C(CSc1ccccc1C(=O)O)Nc1ccc2c(c1)OCO2,"inconclusive: 19 µM [inhibitor, partial curve]"
6,Cc1ccc(-n2nc(C)c3c(C)cc(=O)n(CC(=O)Nc4cc(Cl)ccc4C)c32)cc1,inactive
7,O=C(CCCOc1ccccc1)N1CCCCC1,active: 1.51 µM
8,Cc1cccn2c(=O)cc(COc3ccc(NC(=O)C(C)C)cc3)nc12,inactive
9,Cc1ccc(C(C)C)cc1OCC(=O)Nc1ccc(N2CCCCC2)cc1,"inconclusive: 26.9 µM [inhibitor, partial curve, poor fit]"
10,C=CCOC(=O)COc1ccc2c(C)c(C)c(=O)oc2c1C,"inconclusive: 8.49 µM [inhibitor, partial curve]"
11,COc1cccc(CNc2nc3nc(C)c(Cl)c(=O)n3[nH]2)c1,"inconclusive: 30.1 µM [inhibitor, single point]"
12,Cc1ncccc1C(=O)N1CCCC(CNC(=O)c2ccc(-c3ccccc3)cc2)C1 (configuration not stated),"inconclusive: 21.3 µM [inhibitor, partial curve, poor fit]"
13,Cc1ccc(NC(=S)NC2CCCCC2)cc1S(=O)(=O)N(C)C,"inconclusive: 30.1 µM [inhibitor, partial curve, poor fit]"
14,CC(=O)N1CCN(c2ccc(NC(=O)c3ccc(C(C)(C)C)cc3)cc2)CC1,"inconclusive: 23.9 µM [inhibitor, partial curve]"
15,O=C(CSc1ncn[nH]1)c1ccc2c(c1)OCCO2,"inconclusive: 21.3 µM [inhibitor, partial curve]"
16,Cc1ccc(COC(=O)c2ccc3ccccc3n2)cc1,active: 15.1 µM
17,CCOc1ccc(NC(=O)c2ccccc2CO)cc1,active: 16.9 µM
18,Cn1cc(/C=N/NC(=O)COc2ccccc2[N+](=O)[O-])c2ccccc21,"inconclusive: 16.9 µM [inhibitor, partial curve]"
19,Cc1ccc2oc(=O)c3cc(C(=O)Nc4ccc(C)c(F)c4)sc3c2c1,inactive
20,COc1cccc(OC)c1C(=O)Nc1ccccc1N1CCCCC1,inactive
21,Cc1ccc(NC(=O)c2cc(N3C(=O)C=CC3=O)ccc2N2CCOCC2)cc1Cl,"inconclusive: 33.8 µM [inhibitor, single point]"
22,COc1ccccc1/C=C/c1onc(C)c1S(=O)(=O)N1CCC(C(=O)N2CCC(C)CC2)CC1,inactive
23,CCn1c(CSc2nnc(-c3ccncc3)n2C)nc2cc(C(=O)O)ccc21,inactive
24,COc1ccc(C(=O)NCc2nnc(SCC(=O)c3ccccc3)n2C)cc1,"inconclusive: 30.1 µM [inhibitor, partial curve, poor fit]"

row,SMILES,Potency
1,Cc1c(Cl)cccc1NC(=O)c1cc(S(=O)(=O)N2CCCCC2)cn1C,inactive
2,CCOc1ccc(OCCSc2nc3ccccc3[nH]2)cc1,"inconclusive: 16.9 µM [inhibitor, partial curve, poor fit]"
3,O=[N+]([O-])c1cc(S(=O)(=O)Nc2cccc(Cl)c2)ccc1N/N=C/c1ccc(N2CCOCC2)cc1,"inconclusive: 9.53 µM [inhibitor, partial curve]"
4,COc1cccc(Nc2ncnc3c2cnn3C)c1,"inconclusive: 23.9 µM [inhibitor, partial curve, poor fit]"
5,O=C(Cn1nnc(-c2ccccc2NC(=O)c2ccco2)n1)NC1CCCCC1,inactive
6,COc1ccc(C)cc1NC(=O)Nc1ccc(C(=O)N2CCCC2)cc1,active: 13.5 µM
7,O=C(c1ccco1)n1nc(-c2ccco2)nc1SCc1ccccc1,inactive
8,Cn1cc(/C=N/NC(=O)c2ccc(C#N)cc2F)c2ccccc21,"inconclusive: 23.9 µM [inhibitor, single point]"
9,Cc1ccc(NC(=O)C2CCCN(C(=O)c3cnn(-c4ccccc4)c3-n3cccc3)C2)cc1 (configuration not stated),inactive
10,Cc1ccc(OCc2ccccc2C)c([N+](=O)[O-])n1,"inconclusive: 19 µM [inhibitor, single point]"
11,COc1cc(-n2nc(C)c3c2OC(N)=C(C#N)C3c2ccccc2)c(Cl)c(Br)c1O (configuration not stated),"inconclusive: 33.8 µM [inhibitor, single point]"
12,O=C(Nc1noc2ccccc12)c1cccc(Cl)c1Cl,"inconclusive: 0.536 µM [inhibitor, full curve]"
13,CCOC(=O)c1nc(Nc2ccc(Nc3ccccc3)cc2)c2ccccc2n1,"inconclusive: 37.9 µM [inhibitor, partial curve, poor fit]"
14,Cc1ccccc1NC(=O)C(Cc1ccccc1)N1Cc2ccccc2C1=O (configuration not stated),inactive
15,Cc1cccc(OCC(=O)Nc2ccc(S(=O)(=O)Nc3onc(C)c3C)cc2)c1C,"inconclusive: 16.9 µM [inhibitor, partial curve]"
16,COc1ccc(-c2ccc(SCC(=O)NC3CCCCC3)nn2)cc1OC,active: 5.36 µM
17,CCCNC(=O)Cn1nc(-c2ccc(C)c(C)c2)c2cnc3ccc(OC)cc3c21,inactive
18,CN1CCc2cccc3c2[C@H]1Cc1ccc(O)c(O)c1-3,"inconclusive: 10.7 µM [inhibitor, partial curve, poor fit] and inconclusive: 13.5 µM [inhibitor, partial curve]"
19,CCn1nnc(NC(=O)COc2ccc(C3CCCCC3)cc2)n1,"inconclusive: 16.9 µM [inhibitor, partial curve]"
20,CCOC(=O)c1c(C)c(C(=O)Nc2ccc(F)cc2)c(C)n1C,inactive
21,Cc1[nH]n(-c2ccccc2)c(=O)c1/C=N/c1ccccn1,"inconclusive: 19 µM [inhibitor, partial curve]"
22,CSc1ccccc1NC(=O)Nc1ccccc1Cl,"inconclusive: 23.9 µM [inhibitor, partial curve]"
23,COc1cccc2cc(C(=O)c3ccccc3)oc12,active: 9.53 µM
24,COc1ccc2oc(C(=O)NCC(c3ccco3)N(C)C)c(C)c2c1 (configuration not stated),"inconclusive: 21.3 µM [inhibitor, single point]"

row,SMILES,Potency
1,Cc1cc(NC(=O)CSc2nc(-c3cccc(F)c3)nc3c2c(=O)n(C)c(=O)n3C)no1,inactive
2,Cc1ccc2nc3sc(C(=O)N4CCOCC4)c(N)c3cc2c1,active: 0.12 µM
3,Nc1nc(CCOc2ccc(F)cc2)cs1,"inconclusive: 37.9 µM [inhibitor, single point]"
4,CCCCN(C)C(=O)Cn1c(=O)oc2cc(S(=O)(=O)N3CC(C)CC(C)C3)ccc21 (configuration not stated),inactive
5,O=C(Nc1ccc2nc3n(c(=O)c2c1)CCCC3)c1cccc(F)c1,"inconclusive: 26.9 µM [inhibitor, partial curve, poor fit]"
6,Cc1ccc(CN2C3CCCC2CC(NC(=O)c2ccc(C)cc2)C3)cc1 (configuration not stated),inactive
7,CCc1c(C(=O)NNC(=O)Nc2ccc3c(c2)OCO3)csc1C,"inconclusive: 26.9 µM [inhibitor, partial curve]"
8,N#C/C(=C\c1cccs1)Sc1nc2ccccc2s1,"inconclusive: 33.8 µM [inhibitor, partial curve, poor fit]"
9,COc1ccc(CCNc2ncnc3onc(-c4ccc(Cl)cc4)c23)c(OC)c1,inactive
10,O=C(Nc1nc2c(F)cc(F)cc2s1)C1CCN(C(=O)c2ccc(F)cc2)CC1,"inconclusive: 16.9 µM [inhibitor, partial curve]"
11,COc1ccc(C(=O)Nc2nc(N3C(=O)c4ccccc4C3=O)n(-c3ccccc3)n2)cc1,"inconclusive: 21.3 µM [inhibitor, single point]"
12,O=C(COc1ccc(-c2ccccc2)cc1)N1CCN(C(=O)c2cccnc2)CC1,"inconclusive: 19 µM [inhibitor, partial curve]"
13,CC(Sc1nnc(-c2cccnc2)n1-c1ccccc1F)C(=O)N1CCCc2ccccc21 (configuration not stated),inactive
14,O=C(COC(=O)c1cc(-c2cccc(Br)c2)nc2ccccc12)NCC1CCCO1 (configuration not stated),"inconclusive: 26.9 µM [inhibitor, single point]"
15,CCN(CC(=O)NCc1cccs1)C(=O)c1ccc(-c2cccc(C(F)(F)F)c2)o1,"inconclusive: 37.9 µM [inhibitor, partial curve, poor fit]"
16,CCc1c(C)sc(NC(=O)c2cccs2)c1C(N)=O,active: 6.75 µM
17,Cn1cc(C(=O)O)c(=O)c2cc(S(=O)(=O)N3CCOCC3)ccc21,inactive
18,Cc1ccc(NC(=O)COC(=O)CCCC2=NS(=O)(=O)c3ccccc3N2)cc1C,"inconclusive: 21.3 µM [inhibitor, partial curve, poor fit]"
19,CCOC(=O)c1cc(=O)n2[nH]c(-c3ccc(C)cc3)cc2n1,active: 13.5 µM
20,COc1ccccc1NC(=O)Nc1ccc2c(c1)CCC2,active: 3.01 µM
21,CCc1cc2c(=O)[nH]c(N3CCCC3)nc2s1,"inconclusive: 37.9 µM [inhibitor, single point]"
22,CCc1nc(Nc2ccc(OC)cc2OC)c2oc3ccccc3c2n1,inactive
23,CCOc1ncccc1C(=O)Nc1nc(C(C)(C)C)cs1,"inconclusive: 26.9 µM [inhibitor, single point]"
24,COc1ccc(NC(=O)c2cn(-c3ccccc3)nc2-c2ccncc2)cc1,"inconclusive: 9.53 µM [inhibitor, partial curve, poor fit]"
